Among all 150,000 compounds or so, about 540 (0.36%) showed an effect of 50% or more. The list shows a part of the results.
The compounds below were run on Plasmodium falciparum (assay: Primary screen in NF54 nanoGlo assay, in single point, at 2uM, 72h; a lower Z score goes with more inhibition). Conditions: timepoint 72 hour.
Type: functional, Erythrocyte

Structure (SMILES) | % Inhibition [%] | Z score
O=C(NC1CC1(F)c1ccccc1)N1CCC(c2ccc3cccnc3n2)CC1 (stereo not given) | 4 | -0.66
O=C1C[C@@H](c2c[nH]nc2-c2ccccc2)c2ccc(N3CCNC3=O)cc2N1 | -7 | 1.26
COc1cc(OC)c(NC(=O)N(CCN(C)C)C2CCOCC2)cc1Cl | -5 | 0.81
O=C(CNC(=O)COc1ccccc1)NCCc1c[nH]c2ccccc12 | 10 | -1.33
O=C(NCc1c(F)cccc1Cl)c1cnc(-c2cccnc2)nc1 | -19 | 1.75
CCCn1cc(S(=O)(=O)NCc2nc(CC(C)C)no2)cn1 | -3 | 0.6
O=C(Cn1cnc2c(c1=O)CCCC2)Nc1ccc(Oc2ccccc2)cc1 | -1 | 0.08
CN(CCc1ccccn1)C(=O)c1cnc2c(c1)CCCC2 | -2 | 0.15
CC(C)(Oc1cccc(Cl)c1)C(=O)Nc1nc2ncccn2n1 | 2 | -0.31
CNc1nc(N2CCOCC2)nc2ccccc12 | 2 | -0.34
Cc1cc(C(=O)N2C[C@H](NS(=O)(=O)N(C)C)[C@@H](C(C)C)C2)[nH]n1 | -7 | 1.2
Cc1nc2ccccc2n1CC1CCN(S(=O)(=O)c2ccc(Cl)s2)CC1 | 10 | -1.09
N#Cc1c2n(c3c(=O)[nH]cnc13)CCC2 | -6 | 0.67
CCC(C)Nc1ncnc2sc(C3COc4ccccc4O3)cc12 (stereo not given) | -6 | 1.02
O=C(N[C@H]1CCCc2c(O)cccc21)c1cccc(-n2ccnc2)c1 | 0 | 0.01
CN(C)C(=O)COC1CN(S(=O)(=O)c2cccc(Cl)c2F)C1 | 6 | -1.09
O=C(c1ccc2c(c1)OCO2)N1CCOC[C@@H](CO)C1 | 0 | -0.03
CC(C)(C)OC(=O)N1CC(CC(=O)Nc2cccc(C#N)c2)C1 | -8 | 1.26
CC(C)CO[C@@H](C)c1noc(CN2CCC(Nc3ccccc3F)CC2)n1 | 6 | -0.8
CCN1CCN(CC(=O)NCC#N)c2ccccc21 | 14 | -1.74
O=C(O)C1(C[C@H]2CCCCO2)CCN(c2noc(-c3ccccc3)n2)CC1 | -5 | 0.79
CCOC(=O)CNC(=O)c1ccc(C)nc1 | -4 | 0.47
CCN1CCC[C@@H]1CNC(=O)c1sccc1C | 6 | -0.59
CNC(=O)C1(F)C(F)(F)C(F)(F)C(F)(F)C(F)(F)C1(F)F | 1 | -0.08
COc1ncc(NC(=O)C(C)C)c(OC)n1 | -9 | 1.73
CCOCCN(C)Cc1cnc2cnccn12 | -20 | 2.32
O=S1(=O)CCCN(C[C@H]2CN(c3ccccc3)CCO2)CC1 | -4 | 0.7
COc1cc(C)c(S(=O)(=O)Nc2cccc(-c3ccc(N4CCCCC4)nn3)c2)cc1C | 0 | 0.06

Structure (SMILES) | % Inhibition [%] | Z score
CC(=O)N1C2CCC1CC(Oc1ccccn1)C2 (stereo not given) | -20 | 2.33
CC[C@@H](N)CNc1ccnc(-c2cc(-c3cnn(C)c3)ccc2O)n1 | -1 | 0.15
c1nc(NCCc2cc[nH]n2)cc(C2CC2)n1 | -8 | 1.55
CN1C[C@@H](CCNC(=O)Nc2cn(C)nc2C(F)(F)F)CC1=O | -14 | 1.39
O=C([C@H]1CC(=O)N(c2ccc3c(c2)CCC3)C1)N1CCN(c2cnccn2)CC1 | -11 | 1.7
c1ccc(-c2ccc([C@@H]3C[C@H](c4cccs4)n4ncnc4N3)cc2)cc1 | -8 | 1.3
O=C(NC[C@H]1C[C@@H]1c1ccc(Cl)cc1Cl)c1cnccn1 | -18 | 1.97
O=S(=O)(CCc1ccccn1)NCC1CCCCCCC1 | -12 | 1.3
CN([C@H]1CCOC1)S(=O)(=O)c1ccc(Cl)c(F)c1Cl | 0 | -0.03
Cc1cc(C(=O)N2CCC(n3cnc4ncccc4c3=O)CC2)[nH]n1 | -9 | 1.16
Nc1ncccc1CNS(=O)(=O)c1cccc(C(=O)N2CCCC2)c1 | 0 | -0.08
CNC(=O)Cc1noc(CCc2c[nH]c3ccccc23)n1 | 30 | -3.37
CN(Cc1ccncc1Cl)C[C@]1(O)CCc2ccccc21 | 14 | -1.84
CCOc1cnn(-c2ccc(Cl)cc2)c(=O)c1Nc1ccc(C(=O)NCCc2ccccn2)cc1 | 7 | -0.86
CC(C)(C)n1ncn(Cc2cc(=O)n3ccccc3n2)c1=O | -7 | 1.3
CC(=O)N1CC(NC(=O)NC[C@H](C)C2CC2)C1 | -2 | 0.37
O=C(N[C@H]1CCCNC1=O)c1coc(COc2cccc(F)c2)n1 | -5 | 0.56
Cc1nc2ncnn2c2ccn(CCc3cnc[nH]3)c(=O)c12 | -9 | 1.24
CCOc1ccccc1CN(CCO)C(=O)[C@@H]1CCC[C@H](O)C1 | 2 | -0.29
O=C(c1cccs1)N1CC[C@@H]2COCCN(Cc3cccnc3)[C@@H]2C1 | -4 | 0.56
Fc1ccc(CNc2nc(C3CC3)no2)cc1 | 4 | -0.7
Cc1ccc([C@@H](C)CCN(C)CCn2ccnc2C)o1 | -1 | 0.15
CC(C)NC(=O)[C@H]1CCCN(c2nc3ncn(CC(=O)N4CCc5ccccc5C4)c(=O)c3s2)C1 | -6 | 0.89
C[C@H]1CN(Cc2nc(C3CC3)nn2C)C(C)(C)CN1Cc1nc(C2CC2)nn1C | -24 | 3.17
Cc1cccc(OCCCC(=O)N2CCCCCC2)c1C | -2 | 0.3
CN1CCN(C(=O)NCc2nnc3n2CCC3)[C@@H](CNC(=O)OC(C)(C)C)C1 | -17 | 2.35
COc1ccc(OC)c(C(=O)N(Cc2ccc3c(c2)OCO3)Cc2cc3ccc(Cl)cc3nc2N(C)C)c1 | -13 | 1.53
